The values that follow come from the supplement of paper PMC11417369.

Some of the results follow.

The experiment deals with PF3D7_0420300 AP2 domain 1 (GST-tagged). Briefly: gcPBM binding intensity (ln(normalized median fluorescence intensity)); higher = stronger DNA binding. In a few lines:
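After 1 h on an Agilent 4 × 180k array of primer-extended double-stranded 36-bp intergenic genomic probes and negative controls, bound GST-tagged P. falciparum DNA-binding domains were detected with Alexa488 anti-GST antibody and scanned at 488 nm. The domains had been expressed in E. coli, and binding took place in 1× PBS with 1% milk, 0.2 mg/ml BSA, 0.5% salmon testes DNA and 0.03% Triton X-100. Binding intensity is the highest Masliner-normalised natural-log median intensity across replicate spots of either probe orientation.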
Regarding “CGAACACAAACACAAACACACATCATATATATATAT [CACACA_site4857]”, the “gcPBM binding intensity (ln)” value is 9.53.

Take “AATATACAAAAAAAAAAAAAAAAAAAAAAGATGGAA [TGCATGCA_negctrl_site550]”: the “gcPBM binding intensity (ln)” value turned out to be 9.28.

With “AGCAAAATGAAATAAATTGGAAAATATTACTGAACG [CACACA_negctrl_site1433]”, the “gcPBM binding intensity (ln)” value worked out at 9.39.

For “GCAAATCTTATATGAAGTACATATCTTATAAATAAA [XGTACX_site6903]”, the “gcPBM binding intensity (ln)” value turned out to be 8.96.

As to “TTTATTATATTTTTTTGTACATATTGATGTATATAA [XGTACX_site6527]”, the “gcPBM binding intensity (ln)” value worked out at 9.19.

Consider TGAATTTACAAAATCATGCACTTAATTACAGAATAA, for which the “gcPBM binding intensity (ln)” value is 9.13.

Take “ATAAAAAAAAAAAGAAGTACATGTATTAAAATTTAT [XGTACX_site3927]”: the “gcPBM binding intensity (ln)” value amounted to 9.5.

“AACAAAGGATTTATATATACATACATACATACATAA [GTGCAC_negctrl_site469]”: the “gcPBM binding intensity (ln)” value worked out at 9.37.

With “ATATATAATTTTTACACACGCAATAAATATATATAT [CACACA_site4283]”, the “gcPBM binding intensity (ln)” value amounted to 9.47.

On to “TTTTGGATTGAGGACCTTTTTATAGAATTATGTTTT [TGCATGCA_negctrl_site544]”, for which the “gcPBM binding intensity (ln)” value amounted to 9.13.

On to “TATATATAATATATATGTACGTATATATATAATATA [XGTACX_site8383]”, for which the “gcPBM binding intensity (ln)” value worked out at 9.14.

“TTAACATAAATATATACACACCAATGATGGCATTTA [CACACA_site4952]”: the “gcPBM binding intensity (ln)” value came to 9.31.

For the sequence “GTTTCCTTAATATTCACACACATATATATAATATAT [CACACA_site1856]”, the “gcPBM binding intensity (ln)” value came to 9.78.

On to “ATGTTATAAGATTTATGTACACACATATACACACCT [XGTACX_site1316]”, for which the “gcPBM binding intensity (ln)” value worked out at 9.75.

As for TTTATTTTCCAAAGGGTGCACATAGTTGAAACGATA, the “gcPBM binding intensity (ln)” value was found to be 9.2.

As for “AATAAAGCAATAAATACACACATATTTATATTTATA [CACACA_site7390]”, the “gcPBM binding intensity (ln)” value was 9.56.

“TTTTCATAATATACATGTACATATATAAATTATTAA [XGTACX_site5206]”: the “gcPBM binding intensity (ln)” value came to 8.98.

In the case of “GTATACATGCAAATTTTTATTTACAACCCCAAAAAG [XGTACX_negctrl_site255]”, the “gcPBM binding intensity (ln)” value turned out to be 9.23.

“TATTATAATATGCCTTGTACATATAACAAATTTATT [XGTACX_site108]”: the “gcPBM binding intensity (ln)” value was 9.05.

With “TTTTTTTCACAAAATACACACAATATATTTTATATC [CACACA_site1138]”, the “gcPBM binding intensity (ln)” value was 9.25.

With “TTTATTTATTACTAAAGTACTAAATCATATTATTAT [XGTACX_site2574]”, the “gcPBM binding intensity (ln)” value worked out at 8.83.

Consider “ATGAACAAGTGGCACACACACATTATAACTAATTTA [CACACA_site5731]”, for which the “gcPBM binding intensity (ln)” value is 9.76.

With “AAAATAATATTTCCTTGTACACATATGTATTTGTTC [XGTACX_site4430]”, the “gcPBM binding intensity (ln)” value is 9.45.

“TTCTTTTTTTTTATCACACATATTACAATCTAGTGC [CACACA_site4697]”: the “gcPBM binding intensity (ln)” value stood at 9.23.

Turning to “GAGAGGAACATTATATGTACATATTAATTCTAAAAT [XGTACX_site5433]”, the “gcPBM binding intensity (ln)” value worked out at 9.06.

As for “ACAAATAAGTTTTATACACACATATAAGTAAATACA [CACACA_site4157]”, the “gcPBM binding intensity (ln)” value was found to be 9.58.

As to “ACAATATTTTTTTATAAACACACATATATATAAATA [CACACA_site9175]”, the “gcPBM binding intensity (ln)” value was 9.35.

For the sequence “TATAGTGATATATACACACACTTGTCTTGTAAAAAT [CACACA_site6594]”, the “gcPBM binding intensity (ln)” value was found to be 9.53.

For “TGTATAAAAATTTATACACACATTTTATATATTTCA [CACACA_site1015]”, the “gcPBM binding intensity (ln)” value was 9.32.

As for “TAATCCATAAGAAGCACACACATATATATATATTTT [CACACA_site1399]”, the “gcPBM binding intensity (ln)” value was determined as 9.62.

For “TATTAATTATTATGACATACATATCAGTTATTAAAA [CACACA_negctrl_site600]”, the “gcPBM binding intensity (ln)” value was found to be 8.98.

With “TAATGGAGAAAAAAAAAACACACGGTACATTCAAAG [CACACA_site3117]”, the “gcPBM binding intensity (ln)” value was 9.8.

On to “AAGGGAAAATAATAAAAGAAAAAGAAAAAAAAAAAA [CACACA_negctrl_site1518]”, for which the “gcPBM binding intensity (ln)” value is 9.21.

For the sequence “TATATATATATATATTGTACTTTATATGTTCTTATA [XGTACX_site7545]”, the “gcPBM binding intensity (ln)” value was 9.41.

Regarding “TTTTATAAAGGAAAAGCATGCAGACTAAAAGATCAT [TGCATGCA_site150]”, the “gcPBM binding intensity (ln)” value was 9.28.

On to “AAATATTACATTTGTTAAATAATATGTTATACATAA [XGTACX_negctrl_site484]”, for which the “gcPBM binding intensity (ln)” value is 8.95.

With “ACATTAAAAAATTGTTTGCACTATATAAAATATTAA [GTGCAC_site9728]”, the “gcPBM binding intensity (ln)” value was found to be 8.99.

On to “AATATAAGAAAAATAACACACACATAAACATATATA [CACACA_site8899]”, for which the “gcPBM binding intensity (ln)” value worked out at 10.1.

As to “TTTCTTTTCTTCTCTATTTTTTTTTCACGGCATTAT [TGCATGCA_negctrl_site484]”, the “gcPBM binding intensity (ln)” value came out at 9.28.

For “ATTCATATGAAACACACACACACACCCATAAAAAAA [CACACA_site3246]”, the “gcPBM binding intensity (ln)” value is 10.1.

“TCTTTTCAATTTTATATGATCTTAATATTTTATGAA [GTGCAC_negctrl_site294]”: the “gcPBM binding intensity (ln)” value came to 8.93.

As for “ATTTTTTACATACTCAAATGTTTTAATTTTTTATAT [CACACA_negctrl_site1213]”, the “gcPBM binding intensity (ln)” value was determined as 9.38.

Turning to “TTTTTTTTTTTTTACACACACAAAATATTATAGGTA [CACACA_site7209]”, the “gcPBM binding intensity (ln)” value was determined as 9.58.

Consider ATATATATATATATAGTGCACATTTATATAATTATT, for which the “gcPBM binding intensity (ln)” value is 9.34.
